Laboratory results taken from PubChem BioAssay AID686978 (National Center for Advancing Translational Sciences (NCATS), 2013).
Screen size: about 420,000 compounds; about 64,000 (15%) were called active. The shares of active, inactive and inconclusive entries below differ from those in the screen. Calls follow the shape of the dose curve; as a rule, active = well fitted inhibition curve with a large enough effect; inconclusive = small, poorly fitted or top-dose-only effect; inactive = flat fitted curve, though single readings scatter. Potencies of inconclusive entries are left out as doubtful fits.

Assay: qHTS for Inhibitors of human tyrosyl-DNA phosphodiesterase 1 (TDP1): qHTS in cells in absence of CPT; also: nearly all actives have a fitted effect of over 55% in size
Settings: DT40 Tdp1-/- hTDP1 cells, no CPT, ATP luminescence, 48 h; activity change, negative = growth inhibition: at 46.2 µM (top of the series)
Method in brief: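 Seeded 400 DT40-hTDP1 cells/well (vehicle DMSO, no 20 nM CPT); pinned compounds; ≥48 hr at 37 °C; CellTiter-Glo luminescence as viability measure.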
% is scaled to controls: 0 for no effect and ±100 for the full control effect; potency is read from the fitted curve at half-maximal effect; tags tell the direction and shape of the fitted curve.

For `O=C(CCc1ccc(S(=O)(=O)NCc2ccccc2)cc1)NCc1ccco1`, which Potency is on record?
The Potency was inconclusive [inhibitor, single point].

For `CN(C)C(=S)NC(=NCc1ccc([N+](=O)[O-])cc1)c1ccccc1`, which “activity change, negative = growth inhibition” value is on record?
Its value is inactive: -23.4%.

For `O=C(CCNS(=O)(=O)c1ccc(Br)s1)NCc1ccccc1`, which “activity change, negative = growth inhibition” value is on record?
The value was inactive: -12.4%.

For `Cc1cc(C)c(NS(=O)(=O)c2cc(-c3cnc(C4CC4)o3)ccc2C)c(C)c1`, which activity change, negative = growth inhibition is on record?
The activity change, negative = growth inhibition was inconclusive: -32.4% [inhibitor].

With `CC(CC(=O)Nc1ccc2c(c1)c(=O)n(C)n2-c1cccs1)c1ccccc1` (stereo not given) as the compound, how does the Potency read?
Its Potency is active: 11.6 µM.

For `NNC(=S)Nc1ccccc1Cl`, which Potency is on record?
Its Potency is active: 7.31 µM.

Which Potency does the source give for `COc1cccc(NS(=O)(=O)c2cc3c4c(c2)C(C)C(=O)N4CCC3)c1` (stereo not given) here?
Its Potency is inconclusive [inhibitor, partial curve].

For `CC(C)c1ccc(C(=O)OCC(=O)NC2CCCC2)cc1`, which Potency is on record?
The Potency was inconclusive [inhibitor, single point].

Which “activity change, negative = growth inhibition” value does the source give for `Cc1ccc(C(=O)O)cc1Nc1ncnc2sc3c(c12)CCC3` here?
Its value is inactive: 21.3%.

Which Potency does the source give for `CCOc1ccc(N(CC)S(=O)(=O)c2cccc3nsnc23)cc1` here?
The Potency was inconclusive [inhibitor, single point].

For `Cc1ccsc1CCN1C(=O)N(c2ccc(F)cc2)C(=O)C1CC(=O)Nc1ccccc1` (stereo not given), which Potency is on record?
Its Potency is active: 23.1 µM.

For `C=C(C)COc1ccc(-c2nc(N)nc(C(F)(F)F)c2-c2ccc(OC)cc2)c(O)c1`, which Potency is on record?
The Potency was inconclusive [inhibitor, single point].

For `CN1C(=O)Cc2cc(S(=O)(=O)CCC(=O)N3CCN(c4cccc(Cl)c4)CC3)ccc21`, which Potency is on record?
The Potency was active: 8.2 µM.

With `CCOC(=O)C1=C(COC(=O)[C@H](C)NS(=O)(=O)c2ccc(NC(C)=O)cc2)NC(=O)NC1C` (stereo not given in full) as the compound, how does the “activity change, negative = growth inhibition” value read?
Its value is inactive: -11.9%.

With `Fc1ccc(-c2cnc3n2CCCCC3)cc1` as the compound, how does the Potency read?
The Potency was inconclusive [inhibitor, single point].

For `O=C(CNC(=O)c1ccccc1)Oc1ccc([N+](=O)[O-])cc1`, which Potency is on record?
The Potency was inconclusive [inhibitor, single point].

Which “activity change, negative = growth inhibition” value does the source give for `COc1cccc(Nc2n[nH]c(=S)s2)c1` here?
Its value is inactive: -0.644%.

Which Potency does the source give for `O=C(NCc1ccccc1Cl)C1CCCN(c2ncnc3c2nc2n3CCCCC2)C1` (stereo not given) here?
The Potency was inconclusive [inhibitor, single point].

Which Potency does the source give for `C[C@@H]1CN([C@@H](C)CO)C(=O)Cc2cc(NC(=O)Nc3ccc(F)cc3)ccc2O[C@@H]1CN(C)Cc1ccc(Cl)c(Cl)c1` here?
Its Potency is active: 14.6 µM.

With `CCc1ccc(NC(=O)c2c(C(=O)Nc3ccccc3)sc3nc(C)cc(=O)n23)cc1` as the compound, how does the Potency read?
Its Potency is inconclusive [inhibitor, single point].

For `Cc1cccc(C(=O)O[C@@H]2[C@H](Cc3ccccc3)NS(=O)(=O)[C@H]3C[C@@H]4C=C[C@]23O4)c1`, which Potency is on record?
The Potency was active: 23.1 µM.

Which Potency does the source give for `O=C(NCc1nnc(SCc2ccccc2)n1-c1ccccc1)C12CC3CC(CC(C3)C1)C2` here?
The Potency was active: 18.4 µM.

For `COc1ccc(CC(=O)Nc2ccc(C(=O)Nc3nccs3)cc2)cc1OC`, which “activity change, negative = growth inhibition” value is on record?
The value was inactive: -28.1%.

Which Potency does the source give for `COc1ccccc1-c1sc2cc3c(cc2c1-c1ccc2c(c1)OCO2)OCO3` here?
The Potency was inconclusive [inhibitor, partial curve].

Which “activity change, negative = growth inhibition” value does the source give for `COc1ccc(S(=O)(=O)Nc2ccc3c(c2)C(=O)N([C@@H](C)CO)C[C@H](C)[C@H](CN(C)CC2CC2)O3)cc1` here?
The value was inactive: 15.1%.

Which Potency does the source give for `COC(=O)c1ccc(C)c(NC(=O)C2COc3ccccc3O2)c1` (stereo not given) here?
The Potency was inconclusive [inhibitor, partial curve].

Which Potency does the source give for `COc1ccc(-n2nnnc2SCC(=O)c2ccc3c(c2)OCCO3)c(OC)c1` here?
Its Potency is active: 13 µM.

For `CC1CCCN(Cc2ccc(OCc3ccccc3)cc2)C1` (stereo not given), which Potency is on record?
Its Potency is inconclusive [inhibitor, single point].

For `O=C(Nc1ccc(Cl)c(S(=O)(=O)N2CCOCC2)c1)c1cccs1`, which Potency is on record?
Its Potency is inconclusive [inhibitor, partial curve].

Which Potency does the source give for `O=C(c1ccc(CS(=O)(=O)c2ccc(Br)cc2)o1)N1CCN(c2ccccn2)CC1` here?
The Potency was inconclusive [inhibitor, single point].

With `COc1ccc2c(c1)c1c(c(=O)n(-c3cccc(C)c3)c(=O)n1CC(=O)N1CCCC1)n2C` as the compound, how does the Potency read?
The Potency was inconclusive [inhibitor, partial curve].

Which activity change, negative = growth inhibition does the source give for `COc1cc(NC(=O)c2cc3ccccc3o2)c(OC)cc1Br` here?
Its activity change, negative = growth inhibition is inconclusive: -33.5% [inhibitor].

Which Potency does the source give for `O=C(NCc1c(Cl)cccc1Cl)c1ccc2nnsc2c1` here?
Its Potency is inconclusive [inhibitor, single point].

Which “activity change, negative = growth inhibition” value does the source give for `COC(c1ccccc1)c1nnc(CCC(=O)N(C)CCCC2CCCC2)o1` (stereo not given) here?
Its value is inactive: -26.1%.

With `CC12CCC(=O)N1C(C(=O)OCC(=O)Nc1cccc(Br)c1)CS2` (stereo not given) as the compound, how does the Potency read?
Its Potency is inconclusive [inhibitor, partial curve, poor fit].

Which Potency does the source give for `CC(C)(C)OC(=O)N1CCC(c2c(C(=O)NCc3ccccn3)cnn2-c2ccc(F)cc2)CC1` here?
Its Potency is inconclusive [inhibitor, single point].

Which “activity change, negative = growth inhibition” value does the source give for `CC(C)c1nc2sc3c(c2c(=O)[nH]1)CC(C)(C)OC3` here?
Its value is inactive: 11.6%.

Which Potency does the source give for `COC(=O)c1ccc(N2Cc3ccccc3/C2=N\C(=O)Nc2ccccc2)cc1` here?
Its Potency is inconclusive [inhibitor, single point].

With `COc1cc(OC)c(/C=N/n2c(C3CCCCC3)n[nH]c2=S)c(OC)c1` as the compound, how does the Potency read?
Its Potency is inconclusive [inhibitor, single point].

For `CC1CCN(S(=O)(=O)c2ccc3c(c2)N(CC(=O)NCc2cccnc2)C(=O)CS3)CC1`, which Potency is on record?
The Potency was inconclusive [inhibitor, single point].

Which Potency does the source give for `COc1ccc(C(=O)Nc2cc(OC)cc3cccnc23)cc1` here?
Its Potency is inconclusive [inhibitor, single point].

With `Nc1c(N=Nc2ccc([N+](=O)[O-])cc2)c(S(=O)(=O)O)cc2cc(S(=O)(=O)O)c(/C=C/c3ccccc3)c(O)c12` as the compound, how does the Potency read?
The Potency was active: 14.1 µM.

Which Potency does the source give for `NC(=O)CSC1=N/C(=C\c2ccco2)C(=O)N1c1ccc(OC(F)F)cc1` here?
Its Potency is active: 13 µM.

With `Cc1nn(Cc2cccc(C(=O)Nc3ccn(Cc4ccccc4)n3)c2)c(C)c1[N+](=O)[O-]` as the compound, how does the Potency read?
The Potency was inconclusive [inhibitor, single point].

With `COc1cc(O)oc1C=Nc1ccc(C(=O)O)cc1` as the compound, how does the Potency read?
Its Potency is inconclusive [inhibitor, single point].

For `CCCN(C(=O)C1CC(=O)N(c2ccccc2C(C)CC)C1)C1CCS(=O)(=O)C1` (stereo not given), which “activity change, negative = growth inhibition” value is on record?
The value was inactive: -6.24%.

With `O=C(Nc1ccccc1F)C1CCCN1S(=O)(=O)c1ccc(Cl)cc1` (stereo not given) as the compound, how does the “activity change, negative = growth inhibition” value read?
The value was inactive: -10.5%.

Which Potency does the source give for `CCOC(=O)C1CCCN(Cc2nc(N)nc(Nc3ccc(C)cc3)n2)C1` (stereo not given) here?
The Potency was inconclusive [inhibitor, partial curve, poor fit].

For `CCC(C)NC(=O)c1ccc2c(c1)N=C(C)c1cc(C)ccc1S2` (stereo not given), which Potency is on record?
The Potency was active: 5.17 µM.

Which Potency does the source give for `CCOc1ccc(NCc2cccn2-c2nnc(N3CCC(C(=O)NCc4cccc(OC)c4)CC3)s2)cc1` here?
Its Potency is active: 6.51 µM.

For `CCc1nnc(NC(=O)CCC(=O)N2CCN(Cc3ccc(C)cc3C)CC2)s1`, which Potency is on record?
Its Potency is active: 18.4 µM.

With `COC(=O)[C@]12CCCCC=C1N(CCC1=CCCCC1)C(=O)[C@H](CC(=O)N1CCSCC1)C2` as the compound, how does the Potency read?
Its Potency is active: 16.4 µM.

Which Potency does the source give for `Cc1ccc(NC(=O)[C@H](Cc2ccccc2)NC(=O)C2CCNCC2)cc1` here?
Its Potency is inconclusive [inhibitor, single point].

For `COc1ccc(-c2cc(-c3ccccc3)nc3c2COc2ccccc2-3)cc1`, which “activity change, negative = growth inhibition” value is on record?
Its value is inactive: -21.5%.

For `Cc1ccc(S(=O)(=O)Nc2cccc(-c3ccc4nnc(C)n4n3)c2)s1`, which Potency is on record?
The Potency was inconclusive [inhibitor, single point].

With `O=C(CNC(=O)c1cc(S(=O)(=O)N2CCCCC2)ccc1N1CCOCC1)Nc1ccc(F)c(F)c1` as the compound, how does the “activity change, negative = growth inhibition” value read?
Its value is inactive: -27.6%.

For `C=CCNC(=S)N1CCN(c2ccccc2Cl)CC1`, which Potency is on record?
Its Potency is inconclusive [inhibitor, single point].

With `COCCCNc1nc(-c2ccc(Cl)cc2)nc2ccccc12` as the compound, how does the Potency read?
The Potency was inconclusive [inhibitor, single point].

For `Cc1nn(-c2ccccc2)c2sc(C(=O)N3CCc4ccccc4C3)cc12`, which Potency is on record?
Its Potency is active: 23.1 µM.

With `Cc1ccc(S(=O)(=O)N2CCCC(C(=O)N3CCN(C)CC3)C2)cc1` (stereo not given) as the compound, how does the Potency read?
The Potency was inconclusive [inhibitor, single point].

For `O=C1C2CC=CCC2C(=O)N1c1cccc(OS(=O)(=O)c2ccc3ccccc3c2)c1` (stereo not given), which Potency is on record?
The Potency was inconclusive [inhibitor, partial curve, poor fit].

With `O=C(Nc1cccc2c1[nH]c1ccccc12)C(F)(F)F` as the compound, how does the “activity change, negative = growth inhibition” value read?
The value was inactive: -28.1%.

Which Potency does the source give for `COc1ccc(N=C2C(=O)N3CCCc4cccc2c43)cc1` here?
The Potency was inconclusive [inhibitor, single point].

For `CCN1C(=O)c2ccccc2Sc2ccc(NC(=O)Cc3ccc(OC)cc3)cc21`, which “activity change, negative = growth inhibition” value is on record?
Its value is inactive: -21.6%.

For `CCCc1cc(=O)[nH]c(SCC(=O)Nc2sccc2C#N)n1`, which “activity change, negative = growth inhibition” value is on record?
Its value is inactive: -3.02%.

Which Potency does the source give for `Cc1cccc(C(CC(=O)N2CCCC2)c2ccccc2)c1O` (stereo not given) here?
Its Potency is inconclusive [inhibitor, single point].

Which “activity change, negative = growth inhibition” value does the source give for `CCOC(=O)N1CCN(S(=O)(=O)c2ccc(C)c(C(=O)NC3CCCCC3)c2)CC1` here?
Its value is inactive: -25.1%.

With `CCOC(=O)CN1C(=O)N[C@@H](c2cccc(F)c2)C(C(=O)OC)=C1C` as the compound, how does the Potency read?
Its Potency is inconclusive [inhibitor, partial curve].

Which Potency does the source give for `COc1cccc(NC(=O)C(=O)NCCc2csc3nc(-c4ccccc4C)nn23)c1` here?
Its Potency is inconclusive [inhibitor, single point].

For `COc1cc2c(cc1NC(=O)COC(=O)[C@@H](NC(=O)c1ccccc1F)C(C)C)oc1ccccc12`, which Potency is on record?
The Potency was active: 20.6 µM.
